To fix the notation:
B1: chr6:56640275:56640385:-|CDS|ENSG00000151914|unk|total|mutant (ssRNA)
RNA: GGGAGUUCUACAGUCCGACGAUCGACUUCCCGCCUGACUCCAUCUGUCACUCCAGCUUAUACACCUGGUUUCCCAUCAGGAUCCGUUCCAAAUUUCAGUUCAGGAGCCGAGCCAAAUUCAUUGCAAACUUUGAAGUUGAUGCACAACAGAGGAUUGAGCAUCA
B2: chr19:1925360:1925461:+|3pUTR|ENSG00000227500|msi1|FALSE|unique (ssRNA)
RNA: GGGAGUUCUACAGUCCGACGAUCUCUCGAACUCCUGACCUCAAGUGAUCCACCCGCCUUGGCCUCCCAAAGUGCUGGGAUAAUAGGUGUCAGCCACCGCGCCCAGCCUGGAGUGGCCUUUUAUGAGAGGGGACCCGUCAAAUCCAACAGAGGAUUGAGCAUCA
B3: chr3:52707940:52708050:+|3pUTR|ENSG00000114902|msi1_unk|total|mutant (ssRNA)
RNA: GGGAGUUCUACAGUCCGACGAUCUUCCGUUCUCUUUAUACUUCAUUUCCCGCCCAGUUGGGUUUUGAUUUAUAUAAGCCGUUCCGACCUUCUCUUCAUAAUCUUGCUCUGAGAUGGGGAACAGAACACACAAGUAUGAAGUUUCAACAGAGGAUUGAGCAUCA
B4: chr19:46720021:46720126:-|3pUTR|ENSG00000090372|unk|FALSE|unique (ssRNA)
RNA: GGGAGUUCUACAGUCCGACGAUCGCCGCUCCUGGUAUCAGAGCUGCUUUCCAGAGGGCAGCACAGCCAGGGCCGGGUGUCUUUAGGGAUCAGUUUUUCCAAGACUCCAGAAGGUGCCAGGUUCUCCCCUUGAGCUCCUGCUCCCAACAGAGGAUUGAGCAUCA
B5: chr19:45844017:45844118:-|CDS|ENSG00000125755|msi1|FALSE|unique (ssRNA)
RNA: GGGAGUUCUACAGUCCGACGAUCGCCCGCCAGAGACCCAUGUUCAUGUCUGAGGUGAUCCAGGCCUAUGAAACUCUGCAUGGUAGGUCAUUGUCCUCCCCCCUCCCCCUGCCUUCUCUUCACUGGCCAGUCUGCUCUUUCUUUCAACAGAGGAUUGAGCAUCA
B6: chr12:42105817:42106069:-|CDS|ENSG00000151233|control|control|control (ssRNA)
RNA: GGGAGUUCUACAGUCCGACGAUCAUUGCUGCAAUGGCACCAGAACAUGAGGAACCUCGAAUAGGAUGGUAUAAUCGCUUUGCUAGGCAUCCAUAUUAUGGAAAAACUGGAGUAAACUCUGGAGUUAUGUUGAUGAACAUGACUCAACAGAGGAUUGAGCAUCA
B7: chr2:96373863:96373964:+|3pUTR|ENSG00000121152|unk|FALSE|unique (ssRNA)
RNA: GGGAGUUCUACAGUCCGACGAUCUAGAACUGGCAAAAUAUUUGAGUGUCCACUAGAUGAGUAUCAGACCUAGUCCUUACCCUUAGGGGGAUGCAGUCCUGGUUGUUAUCCAGGAUACACACCUGUCAGUAUAAGGCAGAAGAUCAACAGAGGAUUGAGCAUCA
B8: chr7:127580627:127582013:-|three_prime_utr|ENSG00000179562|control|control|control (ssRNA)
RNA: GGGAGUUCUACAGUCCGACGAUCAGGAGUCUUCAAUGUGGGAAGGGAUUUUCUGCCAAAUGCCAUUAAUGCUGCUUUAUCCUUAGGCCCUAGAGAUACUGAAAGUCCUGGGGCAGUAUCUUCUGAUGGUGUGCAUGUGAGGAGCAACAGAGGAUUGAGCAUCA
B9: chr12:111683145:111683307:-|CDS|ENSG00000089234|control|control|control (ssRNA)
RNA: GGGAGUUCUACAGUCCGACGAUCAAAGACGACACUAGCCUCAGCUGUAGCCUGUUUAGAAGGCAAGUCACCAGGAGAGAAAGUAGCGAUUAUCCAUCAGCAUCUCGGCCGUCGAGAAAUGACAGAUGUGAUCAUUGAGACCAUCAACAGAGGAUUGAGCAUCA
B10: chr8:7990417:7990620:-|CDS|ENSG00000205989|control|control|control (ssRNA)
RNA: GGGAGUUCUACAGUCCGACGAUCGAUGUCUGCAACAUAGUAGAAGAUCAAAUUGGUGCCUGCCGAAGAAGGAUGAAGUGCUGUAGAGCAUGGUGGAUUUUAAUGCCAAUUCCAACACCACUUAUCAUGUCAGAUUAUCAAGAACAACAGAGGAUUGAGCAUCA
B11: chr4:140153917:140154018:-|5pUTR|ENSG00000196782|msi1|total|mutant (ssRNA)
RNA: GGGAGUUCUACAGUCCGACGAUCUUUGCAGUCGCCUCGGACUGUCCAUGUGUUUACUUCCCCCAGCCCGAGGAUUCGAUAUCCCGGUUCCUGUGAAAUGCAACUGAGCAGCCAAAGUACUUUGAGAACACGGGGCGGCAUAAACAACAGAGGAUUGAGCAUCA
B12: chr14:102225094:102226328:-|three_prime_utr|ENSG00000080823|control|control|control (ssRNA)
RNA: GGGAGUUCUACAGUCCGACGAUCCCUCCCAUCUGCUCUGCUGUCCCCACACCUGCGGUGCAGCCAGCCUGCCACAAGGCAGCUAGAGUCCAGCUAGACCCACCCCUGGCACGGCCGACCUCUUCCUGGCUUCUUCUGGGCCUACAACAGAGGAUUGAGCAUCA
B13: chr2:218454035:218454136:-|3pUTR|ENSG00000135913|msi1|total|mutant (ssRNA)
RNA: GGGAGUUCUACAGUCCGACGAUCGAGAUUUCUUCACACAGUAUGUUCAUCAUAUAUCAUCAUCAUUAUUAUGGUGGUAAAGACCGAAUCUUUUUUCUUUUUUGUCAUUCUGCCAUGGAGCAGCAUUACCCUAAUGGAUUGCAACAACAGAGGAUUGAGCAUCA
B14: chr11:69653362:69653473:+|3pUTR|ENSG00000110092|msi1_unk|total|mutant (ssRNA)
RNA: GGGAGUUCUACAGUCCGACGAUCACUGCCAUGUACCCGUUUCCGUUUUCUCUCCGAACAUUGUAUUACAGAUGCCUUUUUUGCCGUUUUUUUUUUUUUUAUGUGAUCAAUUUUGACUUAAUGUGAUUACUGCUCUAUUCCAAACAACAGAGGAUUGAGCAUCA

This is one part of the list.

The assay deals with T1, UNK ZnF1-6 (called full-length) (human, UniProt Q9C0B0 30-357).
T1 sequence: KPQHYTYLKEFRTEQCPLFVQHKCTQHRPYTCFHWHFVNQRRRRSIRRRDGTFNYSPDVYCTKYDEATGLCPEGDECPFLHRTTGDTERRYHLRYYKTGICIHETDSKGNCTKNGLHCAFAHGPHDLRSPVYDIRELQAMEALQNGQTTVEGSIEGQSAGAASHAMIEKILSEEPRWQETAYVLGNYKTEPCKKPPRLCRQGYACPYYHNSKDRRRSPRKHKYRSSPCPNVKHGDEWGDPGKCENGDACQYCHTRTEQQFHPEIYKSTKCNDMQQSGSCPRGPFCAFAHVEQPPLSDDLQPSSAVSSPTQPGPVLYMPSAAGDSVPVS
The assay can be described thus: nsRBNS (natural sequence RNA bind-n-seq); RBNS binding buffer (assumed for nsRBNS): 25 mM Tris pH 7.5, 150 mM KCl, 3 mM MgCl2, 0.01% Triton X-100, 500 ug/ml BSA, 20 U/ml SUPERase-In, 4 C; UNK is unkempt and MSI1 is Musashi-1; names of the RNAs are library labels; protein concentration not given here; high values mean tight binding.
In the case of B1, the binding signal was 0.514 enrichment R. Next, B2: 0.561 enrichment R. As for B3, the binding signal stood at 0.313 enrichment R. Next, B4: 0.754 enrichment R; B5: 1.07 enrichment R.

B6 gave a binding signal of 0.776 enrichment R.

With B7, the binding signal stood at 0.672 enrichment R. Next, B8: 0.88 enrichment R; B9: 1.28 enrichment R. As for B10, the figure is 0.643 enrichment R; as for B11, 0.678 enrichment R; as for B12, 0.975 enrichment R.

B13 displayed a binding signal of 0.449 enrichment R. Next, B14: 1.63 enrichment R.

These data come from article PMC12136788.
